# Hit rate of the full screen: of about 410,000 compounds, about 5,000 (1.2%) were called active. This list was built around the results that the source calls inconclusive (neither active nor inactive); the mix of calls is not that of the screen. Calls follow the shape of the dose curve; as a rule, active = well fitted inhibition curve with a large enough effect; inconclusive = small, poorly fitted or top-dose-only effect; inactive = no such curve, though single readings can be large or run the other way. Potencies beside an inconclusive call are fits to weak or partial responses and may not hold up.
# Assay: qHTS for Inhibitors of TGF-b; also: nearly all actives have a fitted effect of over 65% in size
# Details: HepG2 CAGA-GFP TGF-b/SMAD3 reporter, GFP fluorescence, 18 h, TGF-beta stimulated, 500 pg/mL final; series mostly up to 46.1 µM
# Method in brief: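 HEPG2 CAGA-GFP reporter cells (1000/well, DMEM with 1% FBS) received compounds, then recombinant TGF-beta at 500 pg/mL final for 18 hours at 37 degrees C. Per-cell GFP summed per well was normalised to unstimulated and stimulated DMSO controls before curve fitting.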
# Potency is read from the fitted curve at half-maximal effect; tags tell the direction and shape of the fitted curve.
row,Structure (SMILES),Potency
1,COc1cccc(/C=N/Nc2nc(Nc3ccccc3)nc(-n3nc(C)cc3C)n2)c1O,active: 1.58 µM
2,COc1ccc(CCNC(=O)C2CC3Cn4c(nc5cc(Cl)c(Cl)cc54)C3N2C)cc1 (stereo unspecified),inactive
3,CN(C)Cc1ccccc1Sc1ccc2c(c1)CCCC2,"inconclusive: 15.8 µM [inhibitor, single point]"
4,Cc1ccc(-c2nc(SCC(=O)NCC3CCCO3)c(-c3ccc(C)cc3)[nH]2)cc1 (stereo unspecified),"inconclusive: 35.5 µM [inhibitor, single point]"
5,O=C(c1cc(-c2ccccn2)nc2c(Cl)cccc12)N1CCN(C(=O)C2CCCO2)CC1 (stereo unspecified),inactive
6,NC(=O)CC(NC(=O)Cc1cccc2ccccc12)c1ccc(NCc2ccccc2)c([N+](=O)[O-])c1 (stereo unspecified),"inconclusive: 12.6 µM [inhibitor, partial curve]"
7,Cn1c(C(=O)N2CCCC(C(=O)NCCCc3ccccc3)C2)cc2sccc21 (stereo unspecified),"inconclusive: 5.62 µM [inhibitor, full curve, poor fit]"
8,O=C(Nc1nnc(-c2ccccc2F)s1)C1CCN(S(=O)(=O)c2ccc(Cl)cc2)CC1,"inconclusive: 22.4 µM [inhibitor, single point]"
9,COc1cc(-c2noc(C)c2C(=O)NCc2ccc(C)o2)cc(OC)c1OC,inactive
10,CN(C)S(=O)(=O)c1ccc(=S)[nH]c1,inactive
11,O=C(c1cc([N+](=O)[O-])ccc1Cl)N1c2ccccc2Sc2ccccc21,"inconclusive: 14.1 µM [inhibitor, single point]"
12,COc1ccc2oc(=O)cc(CN3CCN(c4ccccc4F)CC3)c2c1,"inconclusive: 0.112 µM [inhibitor, full curve, poor fit]"
13,O=C1C(c2ccccc2)=[N+]([O-])c2ccccc21,"inconclusive: 3.55 µM [inhibitor, partial curve, poor fit]"
14,COc1cccc(NS(=O)(=O)c2ccc3[nH]cc(C(=O)N(C)C4CCCCC4)c(=O)c3c2)c1,"inconclusive: 22.4 µM [inhibitor, partial curve, poor fit]"
15,CCCCn1c(=O)c2oc3ccccc3c2n(CC(=O)Nc2cccc(Cl)c2)c1=O,"inconclusive: 0.112 µM [inhibitor, full curve, poor fit]"
16,Cc1cc(C)c(NC(=S)NCCCSC2CCCCC2)c(C)c1,"inconclusive: 20 µM [inhibitor, single point]"
17,CCCC(=O)N1c2nc(C(C)C)nn2C2(CCCCC2)[C@@H]2CCCC[C@@H]21,"inconclusive: 8.91 µM [inhibitor, partial curve]"
18,Cc1ccc(S(=O)(=O)NCc2ccc(N3CCN(C(=O)OC(C)(C)C)CC3)cc2)cc1,inactive
19,Cc1cc(NC(=O)CSc2nnc(C3CC3)n2Cc2ccccc2)no1,"inconclusive: 6.31 µM [inhibitor, single point]"
20,N#C/C(=C/c1ccccc1[N+](=O)[O-])C(=O)NCc1ccco1,inactive
21,Cc1ccc(OCC(=O)Nc2ccc3nn(-c4ccc(Cl)cc4)nc3c2)cc1,"inconclusive: 11.2 µM [inhibitor, partial curve]"
22,CC(=O)N1c2ccc(S(=O)(=O)N3CCC(C(=O)NC(C)c4ccccc4)CC3)cc2CC1C (stereo unspecified),"inconclusive: 35.5 µM [inhibitor, single point]"

row,Structure (SMILES),Potency
1,Cc1ccccc1OCC(=O)N/N=C/c1ccc(N2CCOCC2)o1,active: 12.6 µM
2,CCOC(=O)c1cccc(Nc2ccc3cc(S(=O)(=O)N4CCCCC4)ccc3n2)c1,"inconclusive: 22.4 µM [inhibitor, single point]"
3,CCOC(=O)C1CCCN(C(=O)c2ccc3c(c2)N(Cc2ccccc2)C(=O)c2ccccc2S3=O)C1 (stereo unspecified),active: 10 µM
4,CCCN1CCCc2cc(CN(CCCN3CCOCC3)C(=O)Nc3ccc(CC)cc3)ccc21,"inconclusive: 35.5 µM [inhibitor, single point]"
5,COCCCN1CCc2[nH]c(=S)[nH]c(=O)c2C1,"inconclusive: 11.2 µM [inhibitor, single point]"
6,Cc1cc(NC(=O)CCC(=O)N(c2ccccc2)C(C(=O)NC2CCCC2)c2ccccc2C)no1 (stereo unspecified),inactive
7,CCOc1ccc(-n2c(-c3ccc(OC)cc3)c[n+]3c2CCCCC3)cc1,"inconclusive: 15.8 µM [inhibitor, single point]"
8,Cc1ccc(C)c(S(=O)(=O)N2CCC(c3nc4c(nnn4Cc4ccc(F)cc4)c(=O)[nH]3)CC2)c1,"inconclusive: 15.8 µM [inhibitor, single point]"
9,CC(Oc1ccc(Br)cc1)C(=O)NC1CCN(Cc2ccccc2)CC1 (stereo unspecified),inactive
10,Cc1sc2nc(C3CC3)nc(SCC(=O)N3CCc4ccccc4C3)c2c1C,"inconclusive: 15.8 µM [inhibitor, single point]"
11,Cc1csc(=O)n1CC(=O)OCC(=O)c1ccc(Br)cc1,"inconclusive: 8.91 µM [inhibitor, partial curve]"
12,COc1ccc(C(C(=O)NC2CCCC2)N(C(=O)c2snc(C(N)=O)c2N)C2CCCC2)cc1OC (stereo unspecified),inactive
13,CCOC(=O)N1CCN(C(=O)c2ccc(Cn3c(=S)[nH]c4cc5c(cc4c3=O)OCO5)cc2)CC1,inactive
14,COc1ccc(S(=O)(=O)c2c(SC)nn(Cc3ccccc3C)c2NC(C)=O)cc1,inactive
15,O=C(Nc1ccc2c(c1)OCCO2)C(c1ccnc2ccccc12)N1CCN(C/C=C/c2ccccc2)CC1 (stereo unspecified),"inconclusive: 14.1 µM [inhibitor, single point]"
16,O=C(COc1ccc(S(=O)(=O)NC2CCCCC2)cc1)N1CCN(c2ccc(F)cc2)CC1,"inconclusive: 2.24 µM [inhibitor, partial curve, poor fit]"
17,FC(F)(F)c1ccc(Oc2ccc3ccccc3c2Br)nc1,"inconclusive: 35.5 µM [inhibitor, single point]"
18,Nc1ccccc1C#Cc1ccccc1,"inconclusive: 35.5 µM [inhibitor, single point]"
19,COc1ccc(CNc2cc(C)nc3ncnn23)c(OC)c1,inactive
20,c1ccc(-c2nc3ccccn3c2-c2ccccc2)cc1,inactive
21,CCN(CC)c1ccc(/C=N/n2nnnc2N)c(O)c1,inactive
22,O=C(Nc1ccncc1)C1CCN(S(=O)(=O)c2c(Cl)cccc2Cl)CC1,"inconclusive: 35.5 µM [inhibitor, single point]"

row,Structure (SMILES),Potency
1,CCn1nnc(-c2ccccc2NC(=O)c2cc(OC)c(OC)c(OC)c2)n1,"inconclusive: 0.631 µM [inhibitor, full curve, poor fit]"
2,CSc1cccc(NS(=O)(=O)c2ccc(-c3coc(C)n3)cc2)c1,"inconclusive: 35.5 µM [inhibitor, single point]"
3,Cc1nc(SCC(=O)c2ccccc2)c(C#N)c(-c2ccco2)c1C(=O)NCc1ccco1,"inconclusive: 10 µM [inhibitor, partial curve, poor fit]"
4,COC(=O)c1ccc(-n2c(C)cc(-c3csc(NC(=O)c4ccc(S(=O)(=O)N(C)C)cc4)n3)c2C)cc1,"inconclusive: 3.55 µM [inhibitor, full curve, poor fit]"
5,C[C@@H]1[C@H]2[C@@H]3CC[C@@H](C3)[C@H]2CN[C@H]1c1cn(Cc2ccccc2)c2ccccc12,"inconclusive: 35.5 µM [inhibitor, single point]"
6,Cc1cc(C)nc(NC(=NCCc2c[nH]c3ccccc23)NC(=O)c2ccco2)n1,"inconclusive: 35.5 µM [inhibitor, single point]"
7,CCC(COC)Oc1cc(NCc2ccccc2)c2ncn(C(C)C)c2c1 (stereo unspecified),"inconclusive: 12.6 µM [inhibitor, partial curve, poor fit]"
8,CCCNC(=O)c1ccc2c(=O)c(O)c(-c3ccc(OC)cc3)[nH]c2c1,"inconclusive: 25.1 µM [inhibitor, single point]"
9,Cc1ccc(S(=O)(=O)N2CCCCC2)cc1NC(=O)C1CC(=O)N(c2ccc3c(c2)OCCO3)C1 (stereo unspecified),"inconclusive: 3.16 µM [inhibitor, partial curve, poor fit]"
10,Cc1ccc(-n2nc3c(=S)[nH]nc(C)c3c2C)cc1,"inconclusive: 35.5 µM [inhibitor, single point]"
11,CCOc1ccc(S(=O)(=O)NCc2ccncc2)cc1,"inconclusive: 12.6 µM [inhibitor, partial curve, poor fit]"
12,CC(=O)Nc1cccc(NC(=O)c2ccco2)c1,inactive
13,Cc1ccccc1S(=O)(=O)N1[C@@H](c2ccc(Cl)cc2)C(C(=O)O)=CC[C@H]1c1ccc(Cl)cc1,"inconclusive: 35.5 µM [inhibitor, single point]"
14,COc1cccc(NC(=O)CN(c2ccc([N+](=O)[O-])cc2)S(=O)(=O)c2ccccc2)c1,inactive
15,CCOC(=O)c1sc(NC(=O)c2ccc3nc[nH]c3c2)nc1C,inactive
16,COC(=O)c1ccc(NC(=O)CN2C(=O)CSC2=O)cc1,inactive
17,CC(C)(C)C(=O)NNC(=O)c1cc(C(C)(C)C)nn1Cc1ccccc1,inactive
18,Cc1nn(-c2ccc(F)cc2)c(Cl)c1C(=O)OC(C)C(=O)N(C)C1CCCCC1 (stereo unspecified),"inconclusive: 35.5 µM [inhibitor, single point]"
19,CNc1nc(NCc2ccccc2)c2ccccc2n1,"inconclusive: 11.2 µM [inhibitor, single point]"
20,CC1CCCCN1CC(=O)N1CCCc2c1c(=O)oc1ccc(OCc3ccccc3)cc21 (stereo unspecified),"inconclusive: 35.5 µM [inhibitor, partial curve, poor fit]"
21,COc1cc(/C=C/C(=O)c2ccc3c(c2)OCCO3)cc(Br)c1OCC(=O)N(C)C,active: 3.98 µM
22,COc1ccccc1C(=O)Nc1ccc(-c2nc3ccccc3s2)c(C)c1,"inconclusive: 4.47 µM [inhibitor, full curve, poor fit]"

# Source: PubChem BioAssay AID588855 (National Center for Advancing Translational Sciences (NCATS), 2011)
